Tested on: inflammation of the hind paw produced by formalin
Test: formalin-induced hind paw inflammation measured with a plethysmometer
Assay type: in vivo, rat
Details: pretreatment at doses that inhibit phase II of the formalin behavioral response; FIGS. 10 and 11
Description: (see, for example, FIGS. 10 and 11).

Row | Structure (SMILES) | effect upon the inflammation produced by formalin (paw volume)
1 | CC(C)Oc1ccc2c(c1)CCc1c-2c2c(c3c4ccccc4n(CCO)c13)CNC2=O [IX] | had no effect
2 | CC(C)Oc1ccc2c(c1)CCc1c-2c2c(c3c1[nH]c1ccc(F)cc13)CNC2=O [VIII] | had no effect
